# In the BET-seq Pho4 binding data (Le et al. 2018):
# This is one part of the list. Values were computed here from the reads of four pooled replicates and scatter widely.
# Target: T1, Pho4 (S. cerevisiae) (UniProt P07270)
# T1 sequence: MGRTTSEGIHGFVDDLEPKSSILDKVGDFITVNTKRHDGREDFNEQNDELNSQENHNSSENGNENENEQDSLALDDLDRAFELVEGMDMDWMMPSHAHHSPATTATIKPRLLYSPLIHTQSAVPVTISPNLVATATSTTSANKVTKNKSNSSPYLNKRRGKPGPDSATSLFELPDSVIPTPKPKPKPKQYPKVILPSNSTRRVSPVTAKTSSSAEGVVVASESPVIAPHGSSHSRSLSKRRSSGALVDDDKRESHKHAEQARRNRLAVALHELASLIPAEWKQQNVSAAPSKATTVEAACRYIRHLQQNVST
# Test: relative binding free energy (BET-seq); higher = weaker binding
# Conditions: reference: library average
row,Sequence,relative binding free energy [kcal/mol]
1,TGGTACACGTGTGCGT,0.1
2,TGCTGCACGTGGCTTT,-0.12
3,TTTGTCACGTGCGGAA,-0.14
4,TTAAACACGTGTTGTA,-0.03
5,TTCGACACGTGTTAGT,0.11
6,GATAGCACGTGGACTG,0.16
7,GTCGTCACGTGAAGGT,0.23
8,CGATGCACGTGGAAGG,0.07
9,GTATTCACGTGTAGGG,0.33
10,AGTCCCACGTGTGGGG,-0.06
11,GAGTACACGTGTGGTC,0.21
12,TATAGCACGTGCTTGG,-0.08
13,TTAGTCACGTGTGATG,0.13
14,TGCATCACGTGGTTCG,0.17
15,GTGCGCACGTGGGGAT,-0.29
16,AAGGGCACGTGTAGAT,0.15
17,GTGGGCACGTGAGTTC,0.11
18,CTGGACACGTGTATTT,0.06
19,GTGGGCACGTGTTAGA,0.1
20,TTCTTCACGTGGGGTT,0.29
21,GATGTCACGTGTTGAA,0.28
22,TTTCGCACGTGAGGGC,0.17
23,TCGGGCACGTGAGTCG,0.18
24,AAGGACACGTGTTTGT,0.01
25,TTAATCACGTGTAGGT,0.09

row,Sequence,relative binding free energy [kcal/mol]
1,CGGATCACGTGTAGTT,0.21
2,TCATGCACGTGTCGGT,0.02
3,TTGTGCACGTGACGTC,0.24
4,TGCTACACGTGAAGGT,0.34
5,TGGGTCACGTGTACGA,0.12
6,GGATTCACGTGTATTG,0.32
7,GAAAGCACGTGATAGG,0.16
8,TCGTGCACGTGGGTGT,-0.18
9,TTTCTCACGTGGTGCT,0.18
10,TTGGACACGTGTATAA,0.07
11,TTTGCCACGTGTTATG,-0.1
12,TCGGTCACGTGGTGGT,0.14
13,TCTGGCACGTGGGGGA,-0.21
14,TGTTGCACGTGTGAAT,0.02
15,TATGACACGTGTAGGT,0.06
16,GTTAACACGTGTAGTG,0.03
17,TTGAGCACGTGAGTCA,0.12
18,CGTACCACGTGGGGTG,-0.36
19,TCTGACACGTGGTGGG,0.03
20,ATTAGCACGTGGGGGG,-0.19
21,TTCCACACGTGTTGGG,0.13
22,ATACGCACGTGTTAGT,-0.17
23,TACGACACGTGGGGTT,-0.07
24,TGGTGCACGTGCGCGT,-0.23
25,TGGTGCACGTGCATAT,-0.1

row,Sequence,relative binding free energy [kcal/mol]
1,TAGTTCACGTGCGGCG,0.26
2,ATTGTCACGTGTTGGG,0.13
3,CATTACACGTGTAGTT,0.12
4,CTATTCACGTGGTAGT,0.17
5,TGAAACACGTGTGCGT,0.03
6,TATGACACGTGATTAG,0
7,GTCATCACGTGTGGAT,0.17
8,AGGGTCACGTGGCTTT,0
9,GGGCTCACGTGGGTGC,0.08
10,TGGATCACGTGACGTG,0.37
11,AGTTGCACGTGGCTGT,-0.14
12,TGCATCACGTGTTTGC,0.18
13,AGGGTCACGTGGTCGC,-0.15
14,TCCGGCACGTGTCTGT,0.24
15,TGGGTCACGTGTCGTC,0.16
16,TTAAACACGTGGGGTG,-0.28
17,TTCTTCACGTGGGTTA,-0.04
18,ATGGTCACGTGTGGTA,0.19
19,TGATTCACGTGAGTCT,0.35
20,TTTGACACGTGGATGG,0.08
21,GCTGTCACGTGGGGTC,-0.07
22,GGGGGCACGTGAGGTT,0.28
23,TAAATCACGTGTAATT,0.2
24,TAAGGCACGTGGTGAG,-0.14
25,TTGGACACGTGAAGTA,0.19

row,Sequence,relative binding free energy [kcal/mol]
1,TAGTTCACGTGCTTAA,0.38
2,GTTTACACGTGGCCTG,0.09
3,GGGTGCACGTGTTGCG,0
4,ATATGCACGTGATTCT,0
5,GAGGTCACGTGGAAAA,0.4
6,GTAGTCACGTGACGTG,0.22
7,AAAAGCACGTGGGTTG,-0.24
8,AAAGCCACGTGGGTGG,-0.19
9,GAGGCCACGTGTTTTT,-0.06
10,TCAGTCACGTGGGTGG,-0.1
11,TTGGTCACGTGATTCA,0.17
12,TGCGTCACGTGATTTT,0.21
13,TGGATCACGTGTTTGA,0.1
14,GTATGCACGTGGGACT,-0.17
15,GAGTGCACGTGGGATT,0.06
16,GTGGGCACGTGCTGGC,-0.24
17,GTGAACACGTGATGCG,0.22
18,TTTCTCACGTGATTAT,0.16
19,TATAGCACGTGAGTAG,0.14
20,TTAGCCACGTGGGGGA,-0.31
21,TTTTACACGTGATTTG,0.29
22,TGAGTCACGTGGGAGG,0.04
23,TGTAGCACGTGTATCT,-0.09
24,GTAGACACGTGCATGG,-0.08
25,GTGTTCACGTGTGTAC,0.27

row,Sequence,relative binding free energy [kcal/mol]
1,GGCTACACGTGATAGG,0.3
2,TGGCCCACGTGGTAGG,-0.12
3,GTCGGCACGTGGCTTG,-0.22
4,GAGTTCACGTGTAGCT,0.35
5,GTAGGCACGTGGTGGT,-0.06
6,CGGGGCACGTGCAGGA,-0.15
7,GAGATCACGTGGTGCG,0.11
8,ATTAGCACGTGTTACG,-0.01
9,GTGATCACGTGTGTCT,0.3
10,CGTCTCACGTGTTAGT,0.15
11,GGACGCACGTGCGGGT,-0.17
12,CGGTACACGTGTTGGA,0.08
13,CTATTCACGTGTTGAA,0.41
14,TTTGTCACGTGTACGT,0.18
15,CTAGTCACGTGTGTAT,0.03
16,CCAGTCACGTGGTGGT,0.13
17,ATTTACACGTGGGAAA,0.09
18,GGGTTCACGTGTGCTA,0.19
19,ATGTACACGTGTTGGA,0.05
20,AGTGTCACGTGTCGCT,0.13
21,GTAAACACGTGATGGT,0.11
22,TGTATCACGTGTCCTT,0.09
23,TTTTGCACGTGACGGG,0.12
24,ACTCGCACGTGGGGGA,-0.25
25,GGGTCCACGTGGTTAA,0.04

row,Sequence,relative binding free energy [kcal/mol]
1,TCTTTCACGTGGGGTA,0.1
2,ATTTACACGTGCGTTT,0.06
3,TATTTCACGTGCGTTG,0.26
4,CGTTACACGTGCTTGT,0.01
5,CAGGGCACGTGTGTTT,-0.03
6,CGTTACACGTGTGGTC,0.16
7,TTAGTCACGTGCGGGG,0.08
8,GTATACACGTGGGTTC,0.03
9,TAGTTCACGTGCGGTT,0.25
10,TCTGGCACGTGAGGTT,0.04
11,AGTGGCACGTGGGTAC,-0.25
12,TTGAGCACGTGGTGGC,-0.16
13,CGGTGCACGTGTTTGT,0.03
14,TGTCGCACGTGATTTT,0.04
15,TAAGGCACGTGGGCGA,-0.31
16,TGTAGCACGTGGAATG,-0.03
17,TTTGTCACGTGGGGAA,0.06
18,CGTTGCACGTGTGGTG,-0.02
19,TTTTTCACGTGTTCAC,0.36
20,CATATCACGTGGTTGT,0.06
21,GTAGGCACGTGGTCTG,-0.19
